The text below walks through data of PMC2850574 (Biochemistry, 2010).

A word on the Kd: it is the constant that tells how readily two partners part at equilibrium. Low values mean higher affinity, high ones lower affinity.

The series deals with the molecule itself.

Bounds are passed on as bounds.

B1: wild-type SecA (Escherichia coli SecA ATPase) (natural protein)
chain: not shown
B1 yielded a Kd of under 1 nM.
